In article PMC10726135 one finds binding signal (log2 normalized intensity) data, which are given here for 93 sequences.

The list shows a part of the results. At the low end of the ranking the order means little. The protein was read in a cell extract, so binding may be indirect.

For the test, the target named is T1, HNF4alpha2 (COS-7 nuclear extract) (UniProt P41235).
T1 sequence: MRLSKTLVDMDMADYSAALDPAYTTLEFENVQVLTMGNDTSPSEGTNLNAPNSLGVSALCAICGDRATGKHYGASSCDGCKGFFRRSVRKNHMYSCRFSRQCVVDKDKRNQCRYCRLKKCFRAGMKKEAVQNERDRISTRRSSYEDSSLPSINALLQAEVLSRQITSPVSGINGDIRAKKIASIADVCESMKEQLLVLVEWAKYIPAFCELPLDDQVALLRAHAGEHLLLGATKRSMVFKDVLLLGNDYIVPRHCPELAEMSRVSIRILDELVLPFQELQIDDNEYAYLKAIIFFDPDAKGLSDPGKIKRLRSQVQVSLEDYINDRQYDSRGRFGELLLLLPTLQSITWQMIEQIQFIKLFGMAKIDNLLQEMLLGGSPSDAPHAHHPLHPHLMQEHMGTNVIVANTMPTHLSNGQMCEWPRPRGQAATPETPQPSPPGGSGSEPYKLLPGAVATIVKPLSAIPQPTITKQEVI
Put plainly: protein-binding microarray. The note with it: COS-7 nuclear extract on double-stranded Agilent 4x180k PBM; binding buffer, salt, pH and temperature not given; high values mean tight binding; double strand, one strand shown; sequences stand for … in …GCCTAGGGAGATTAGAGTATCGGTCGA
As to CTGGGCCAAAGGGCATTCTGGAGTTTGGAA, the binding signal (log2 normalized intensity) came to 2.97. In the case of GCCAAGGTACCCTGGCTTGTAATTCAAGAC it was -0.599; in that of GAAGATAAAGTGTCTCCCTCTGCAGCAAAG, -1.14. Regarding AGGTCAGGGAGTAGGTTTGATTTGTGAAAG, the binding signal (log2 normalized intensity) was 0.942.

For the sequence AACAAAATAATAGTTGACCTTTGAGAACCT, the binding signal (log2 normalized intensity) was found to be 4.28.

With TACTGGGGGCCACCATATGTATGTGAAGCT, the binding signal (log2 normalized intensity) is -1.17. With GCTCAGCGGTTACTTCGAGTACATTGTAAC the figure was 1.1; with TTCCCACATTGCTCTCCCATAAGAATCCTT, 0.731; with GCGGATCCAACCTGTTCTTTTGAGCTGTGG, 0.848.

Take GTCTAGATGCTGGGCAGCTTGTGTGCGTTT: the binding signal (log2 normalized intensity) was 1.56. On to GGTGGTGAAAGTCAACAAGATTCCTTGAGC, for which the binding signal (log2 normalized intensity) was -0.969. For GCAAAGGTCAGGAGTTCCATTTAGCTTCAG, the binding signal (log2 normalized intensity) stood at 0.288.

For the sequence TCAACCCCCACTTCCTGACTTGGCCTGAAC, the binding signal (log2 normalized intensity) turned out to be 2.98.

Turning to CCGAGGTCCTGGGGCGATGCTTCCAAAGTC, the binding signal (log2 normalized intensity) is -1.07.

As to TTTGATAGGTGGTCTGTTTGTGAAACAGTG, the binding signal (log2 normalized intensity) turned out to be 1.96.

With TCGCCGTGTGACTGAGGGCTGACATGTCTT, the binding signal (log2 normalized intensity) worked out at 0.213. Turning to TCATTATCTTCAGTCTAGAATCTGCAGCCC, the binding signal (log2 normalized intensity) was determined as 0.566.

Consider ACTCTGGGGCAATAACCCTAGACACCGGGT, for which the binding signal (log2 normalized intensity) is -1.07.

With GGTTGGCACGCTTAGGGAACAAAGGTCAGT, the binding signal (log2 normalized intensity) is 6.44. AGCTCTAAACCACCCAATCCTGCAGCATTC: the binding signal (log2 normalized intensity) was -1.09. In the case of ACATTTCAGTATGAATGCCTTGGCCTCTGC it was 1.11; in that of TGGCTGGCGGCTAGTGTACAGGTGACCTTT, 7.2; in that of TCTAGATGGGGTTGAGCAGACTAAAGGACT, -1.06. In the case of GAGTTTAGAATTTGAACTATGGTCATCTGA it was 2.69; in that of TGCTAATGTCCTTTGGAGTGCTTTCATCTT, 1.06; in that of GTGGGTGGGAAAGGGTGCTCCAGGCAAAGG, 0.0353. With GTGGAGGCCAGCGCCAGGCTGGGGGCAGAG the figure was -1.19. As for GTCTGCCTGACTCCAGAGTCCAAACTGGGA, the binding signal (log2 normalized intensity) is 2.17. Take GCAGAGTCCTGGGGAGGGTAAGCATGCTTG: the binding signal (log2 normalized intensity) was -0.984.

In the case of CACTGCAAATGATGTCTCTCATTGGAATGA, the binding signal (log2 normalized intensity) came out at 0.955. In the case of TGTTCCTCTGCCCCTCATCGAGGCCATCCC it was 2.33; in that of GGGTAAAACCAAACTGCAGCTGCTGCACTG, -1.03; in that of GGTGACCCCTCAGTTTTTCTCTTTTGACCT, 4.09. Turning to TACTGACTAAAGGTTAAACATGTACTCTGT, the binding signal (log2 normalized intensity) is 2.36. On to CTGCACACACTCACAGAACACAGTGTTTGC, for which the binding signal (log2 normalized intensity) is -0.755.

As for TCCTGGCAGTGTGGAAAAGCTGGCTGGCGG, the binding signal (log2 normalized intensity) is -0.741. Turning to GAGCTGGCGGCGCGGCCGGAGCGGCGGACC, the binding signal (log2 normalized intensity) is -1.12. In the case of TCCAACCTGTTCTTTTGAGCTGTGGTTAAG it was 1.67; in that of GAACCGTGATTATCATCTTTTACTTAGCAA, -1.24.

As for TTAAGTTGACTCCAATGCTCGTTGACCATT, the binding signal (log2 normalized intensity) came out at 1.17. With AGTATCCAGCTCCTCTTCACACCATGCTCT the figure was -0.739; with ACCCTCTCTGGATGCAGGTCGCCGGGAAAA, 0.448; with CATCGGACTTTGATCTGCCACATACCTTTA, 4.28. Consider CGCTCCCAGAAGCCTCCGGTGTACCTCGCT, for which the binding signal (log2 normalized intensity) was -1.12. Regarding TTACTCATTCCCAGGTCGGGCCGGAGAGGC, the binding signal (log2 normalized intensity) was determined as 0.451. For TCCTATCCTAGGGTTAAAGTCTACAACCAG, the binding signal (log2 normalized intensity) was found to be 3.09. Take TGAGACTTCCCAGCTGCTGGTCAAAGGGCA: the binding signal (log2 normalized intensity) amounted to 5.16. With GGGCTATTGACAAAGACCAGTGCTCTTTCT the figure was -1.11; with ACCAAAACACTTGTGTCAACCGTGTCAACA, -1.09.

On to GGACTTTTTTTTGCCTAACTGCTGCATGTC, for which the binding signal (log2 normalized intensity) is -1.02.

Take TATGAAATCTTATCAGAAGCTTACATATCA: the binding signal (log2 normalized intensity) is -0.937. In the case of GGAGTGACCCTGGGAGCAAAGGTCAAGAGT, the binding signal (log2 normalized intensity) was 6.55. CCGCACCCAGCTTTCATCTCGGCTGGCTAC: the binding signal (log2 normalized intensity) is -1.15. Consider TACCATGGGAGACCTCAGGGGTCATCAGAT, for which the binding signal (log2 normalized intensity) stood at 2.49.

AAAGTCCACCGTGGTGTAGAGGCCCTGCAG: the binding signal (log2 normalized intensity) was -1.22. For TTGTAGCCAAACTCACAGCTTTTATGTCAA, the binding signal (log2 normalized intensity) was -0.888. With TACTAACTGGACTTTATCTACCATTAGTCT, the binding signal (log2 normalized intensity) was 1.48.

GCCTTTCTAGAACCAGAATTCCAGAGAAGC: the binding signal (log2 normalized intensity) was -1.15. For the sequence GCCTGCTTTCCACTCCCATTACTTCTGTTT, the binding signal (log2 normalized intensity) stood at 0.993. In the case of GAAGGAGAGAGAGGGAGAGTGGCCTTTGGA, the binding signal (log2 normalized intensity) stood at 2.89. With CAGGCAGACTGGCTCCGCTGCTGCAGAGCA the figure was -0.954; with GAGTACTGTCTCTTATCAGCCATCTCCCCA, 3.2.

GCCACGCACACCTGGATCTTCCAGGCCTCC: the binding signal (log2 normalized intensity) was -1.16. As to CTGAGGTATTTTTGCAATCCTCCACTCTCC, the binding signal (log2 normalized intensity) is -0.598. On to GGTGTACAAGGAGTCTCCACTATGACCTGT, for which the binding signal (log2 normalized intensity) is 2.66. Consider AGGGAATGAAGCTAAAAGAAGTCCAAGGAC, for which the binding signal (log2 normalized intensity) is -0.977.

Take GACAAAGTTCTGTCCTTTGTCCCCCACCTG: the binding signal (log2 normalized intensity) is 4.72. On to CAAGCGTCAGTCATACAGAGCTGTCACGCA, for which the binding signal (log2 normalized intensity) is -1.09. Turning to AGGGAGGTAAAAGTCCAACAGGGTTAAAAG, the binding signal (log2 normalized intensity) is 2.23. As for AGCCACCGCGCCCCGCCCCCAGTGCACCTT, the binding signal (log2 normalized intensity) was 5.11. With CTTCTGTTCAGGAGTTGTCTGTCCAGTTCA, the binding signal (log2 normalized intensity) is 1.56. GGGAGATAAGGTGGAAAGACAAGTTGAAGC: the binding signal (log2 normalized intensity) was -1.01. In the case of AACAAAAGCAGAGGAGTGGCCATGATGCCA, the binding signal (log2 normalized intensity) is -1.28.

As to GGGCAGGTGAGAGGGCTCTGTCTGCTGGGC, the binding signal (log2 normalized intensity) was -1.08. As to GGGCAAAGTCAGGTACTGGTAGCCTGGGCC, the binding signal (log2 normalized intensity) is -0.982. In the case of GCCCAAAGGTCACCTCTTCAGATAGCCTTT, the binding signal (log2 normalized intensity) was 2.91.

Turning to CAGGCCATCACACTCCTACCCATTCTTCAG, the binding signal (log2 normalized intensity) is -1.14. For GTATACTATTTGCTAATGTCCTTTGGAGTG, the binding signal (log2 normalized intensity) was 2.12. For the sequence ACCTTTTGGACCACAGAGTGACCTGGTATT, the binding signal (log2 normalized intensity) stood at 2.53. With CTCTCAGGTCAAAGTTTGCCTTGACCTCTA the figure was 4.34; with CTGTTGGTGACTGACCCTGATCCCTCCCTG, 3.18.

Take GATTCCCCAATGCAGTACTATGCAATAACC: the binding signal (log2 normalized intensity) was found to be 0.881. Turning to GGAATATTGCCCCCTAATGGTATTTATTTT, the binding signal (log2 normalized intensity) worked out at 2.7. Take GAACTGTAACCTCAAAGGAGGTCAGAACTG: the binding signal (log2 normalized intensity) amounted to 0.393.

GGACGAAGGTCACTAATTGGAAGCTCTTTC: the binding signal (log2 normalized intensity) is 1.27. TGCCTGGCATCTAACCTTCGTCCTTGCCCC: the binding signal (log2 normalized intensity) is 3.82. As to AAGAAGGCAGACTCAAGATAGAGGGCTGCC, the binding signal (log2 normalized intensity) is -1.14. Turning to GTGTTCGCCCCTAGGACACGCAGTTGGAGA, the binding signal (log2 normalized intensity) is -1.03.

For AAGGTTATTTGCTCACCAGTGACCAATAAT, the binding signal (log2 normalized intensity) stood at 0.552. For CAAGCCTAGTTTTGATTATCACTACTCCTC, the binding signal (log2 normalized intensity) was -0.851. With CACAGCTCGACCTTTGACCTTCGGCTTCCC the figure was 8.84; with TGCCCTCTGGTGGCACACAGAGGACGTCAG, -0.0234. In the case of AAAAGCCCTAGTTTTTCTTCCGGTCACATA it was 1.19.
